The values below come from PubChem BioAssay AID624417 (National Center for Advancing Translational Sciences (NCATS), 2012).

Out of some 410,000 compounds screened, about 6,400 (1.6%) were called active. Roughly 20% stayed inconclusive and do not appear here. Calls come from the whole dose curve; as a rule, active = well fitted inhibition curve with a large enough effect; inconclusive = small, poorly fitted or top-dose-only effect; inactive = no such curve, though single readings can be large or run the other way. The source holds several records for some structures; these can differ, active in one and inactive in another. For part of its entries the source gives two or more results. The other results are left out here. There may be further records. The values listed for one entry repeat one measurement (runs, samples, wells, individuals or studies). Brackets tell where a record comes from. The letters are not those of the source and start again with each entry.
Potency is the fitted concentration of half-maximal effect.

This test has as its target Glucagon-like peptide 1 receptor (Homo sapiens) (UniProt P43220). Briefly: qHTS of GLP-1 Receptor Inverse Agonists (Inhibition Mode). Note: nearly all actives have a fitted effect of over 55% in size. The note with it: HEK293 GLP-1R CRE-luciferase, luminescence, 24 h, GLP-1R form is constitutively active; series mostly up to 38.3 µM. The text has this: The overall goal of this project was to develop a novel assay for discovering small molecule ligands for class B1 G protein-coupled receptors (GPCRs). Very few agonists (or inverse agonists in inhibition mode) with generally weak activity for this entire group of physiologically important receptors are known to date. To establish proof-of-principle that this critical bottleneck can be overcome with a suitable screening approach, our studies focused on the class B1 receptor for glucagon-like peptide-1 (GLP-1R), a potential therapeutic target for diabetes and neurodegenerative disease. The assay was developed using a cell-based functional readout. Toward this goal, stably transfected HEK293 cell clones were established that co-express (i) a cAMP-responsive luciferase reporter gene, and (ii) constitutively active GLP-1R that upon ligand interaction inhibit (inverse agonists) the luciferase activity. […]
UniProt P43220, sequence (P43220 whole entry, looked up): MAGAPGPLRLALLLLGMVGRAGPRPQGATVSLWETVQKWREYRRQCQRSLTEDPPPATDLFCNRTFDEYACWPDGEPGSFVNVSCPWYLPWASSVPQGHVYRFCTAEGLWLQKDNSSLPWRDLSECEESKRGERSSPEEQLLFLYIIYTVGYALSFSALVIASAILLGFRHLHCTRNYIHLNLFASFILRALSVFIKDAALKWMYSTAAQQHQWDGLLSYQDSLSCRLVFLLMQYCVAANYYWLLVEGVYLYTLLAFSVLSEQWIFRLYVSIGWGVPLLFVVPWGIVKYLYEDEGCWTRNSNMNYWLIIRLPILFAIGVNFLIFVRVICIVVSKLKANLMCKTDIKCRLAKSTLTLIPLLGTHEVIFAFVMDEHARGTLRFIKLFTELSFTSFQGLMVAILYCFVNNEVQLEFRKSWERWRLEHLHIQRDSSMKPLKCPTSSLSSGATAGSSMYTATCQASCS
Six ul of cell suspension (200 cells/uL in DMEM + 10% Nu serum + 1% pen-strep) is dispensed in a white solid 1536-well plate. […] A luminescence read is obtained on the PerkinElmer Viewlux after 12 min incubation at room temperature.
For orientation: In qHTS, concentration-response curves come from the screen itself.
For the compound `CCC1CCCCN1CCCNC(=O)c1cc2c(Cl)nc3ccccc3c2s1` (stereo unspecified), the Potency result is “inactive [sample A] and active: 3.98 µM [sample B]”.
